PubChem BioAssay (NCI)
Values joined by “and” are separate entries in the source; they are usually repeats but may differ in a detail not shown here. Identical values can stand only once.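 Where inhibition never reached the appropriate level, the endpoint shown equals the highest concentration tested. Otherwise, values were interpolated linearly from a five-concentration, 48-hour dose response in 96-well plates. GI50: concentration for 50% inhibition of growth. TGI is the concentration that stops growth completely.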

These compounds were tested on NCI-H322M lung (assay: growth of human tumour cells (NCI), 48 h).

| SMILES | GI50 | TGI |
| --- | --- | --- |
| Cn1cc(-c2csc(-c3cn(CCCN4CCCCC4)c4ccc(Br)cc34)n2)c2cccnc21 | 1.63 µM | 3.11 µM |
| CC(Oc1ccc2c(=O)cc(-c3ccccc3)oc2c1)C(=O)O (stereo not given) |  | > 100 µM |
| CCCCCC1CC=CC(NC(=O)OCc2ccccc2)C1/C=C/CCCC1OCCO1 (stereo not given) |  | > 100 µM |
| C=C1C(=O)O[C@H]2[C@H]1CC/C(CNC(=O)C(C)c1ccc(CC(C)C)cc1)=C\CC[C@@]1(C)O[C@@H]21 (stereo not given in full) | 4.86 µM | 17 µM |
| Cc1cc(C(=O)CC(Cl)=C(Cl)Cl)c(Cl)cc1Cl | 23.8 µM | 78.7 µM |
| CCc1c2c(nc3ccc(OC(=O)OCc4ccc(B5OC(C)(C)C(C)(C)O5)cc4)cc13)-c1cc3c(c(=O)n1C2)COC(=O)[C@]3(O)CC | 0.0506 µM | 5.14 µM |
| CC(=O)OC1(C)CC(C)C(=O)C(C(O)CC2CC(=O)NC(=O)C2)C1 (stereo not given) |  | 0.239 µM and 0.0533 µM |
| CSc1c(S(C)=O)c2ccccc2n1C (stereo not given) |  | > 100 µM |
| CN(CO)c1nc(N(C)CO)nc(N(C)CO)n1 | 38.7 µM | > 79.7 µM and 59.3 µM |
| CC(C)(CN1CCCCC1)C(=O)CC(SCCS(=O)(=O)O)c1ccccc1 (stereo not given) |  | 40.5 µM |
| COc1ccccc1NC(=O)C(=O)C(c1cnc2ccc([N+](=O)[O-])cc2n1)[N+](=O)[O-] (stereo not given) |  | > 100 µM |
| C[N+]1(C)C/C(=C\C=C\c2ccccc2)C(=O)/C(=C/C=C/c2ccccc2)C1 |  | > 86.1 µM |
| O=C(CO)CC(=O)C(=O)Nc1cccc(C(F)(F)F)c1 |  | > 100 µM |
| CCCCNP1(NCCCC)=NP(NCCCC)(NCCCC)=NP(NCCCC)(NCCCC)=NP(NCCCC)(NCCCC)=N1 | 0.797 µM | 32.9 µM |
| CCN(CC)CCCNc1nccc2c(C)c3[nH]c4ccncc4c(=O)c3cc12 |  | 6.07 µM |
| O=C1/C=C/[C@@H](O)[C@@H]2C[C@@H](O)C[C@H]2/C=C/CCC[C@H](CCc2ccc(NC(=S)Nc3ccc4c(c3)C(=O)OC43c4ccc(O)cc4Oc4cc(O)ccc43)cc2)O1 | 0.567 µM | > 100 µM |
| O=C(NCCCN1CCN(CCCNC(=O)c2cc(-c3ccccc3)nc3ccccc23)CC1)c1cc(-c2ccccc2)nc2ccccc12 |  | 57 µM |
| COC(=O)/C=C(C)/C=C/c1c(C)c(C(C)=O)c(C)n1C |  | > 100 µM |
| CCN(CC)CCCNC(=O)c1ccccc1Nc1c(Cl)cccc1Cl |  | 29.4 µM |
| CC(C)c1ccc(C(O)(C(=O)O)c2ccc(C(C)C)cc2)cc1 |  | > 100 µM |
| CCOC(=O)Cc1ccc(Nc2nc3cc(F)c(F)cc3nc2C(=O)OCC)cc1 |  | > 100 µM |
| COc1c(-c2ccc(F)cc2)oc2c(CC(=O)O)cccc2c1=O |  | > 100 µM |
| COC1=C(OC)C(=O)C(C/C=C/c2c(Cl)nc3sccn23)=C(C)C1=O |  | 78.8 µM |
| N#Cc1c2c(c(Nc3cccc(C(F)(F)F)c3)n3c1nc1ccccc13)CCCC2 |  | 50.1 µM |

| SMILES | GI50 | TGI |
| --- | --- | --- |
| CCCCCC1CC(C(C)=O)CN1c1ccc(F)cc1 (stereo not given) |  | > 100 µM |
| O=C1NC(c2cccc3ccccc23)Nc2ccccc21 (stereo not given) | 0.172 µM | 0.872 µM |
| N#CCCN(c1ccc(C=Nc2ccc(C(=O)O)cc2)cc1)S(=O)(=O)c1ccccc1 |  | > 100 µM |
| C=C1C(=O)O[C@H]2C1C[C@H](O)/C(C)=C/CC[C@@]1(C)O[C@H]21 (stereo not given in full) |  | 48.9 µM |
| COc1ccc(Cl)cc1Nc1nc(C(F)(F)F)ccc1C(=O)N/N=C/c1ccccc1Cl | 0.475 µM | 4.31 µM |
| C[C@@]12C[C@@H](c3ccccc3O1)N1CCCSC1=N2 |  | > 100 µM |
| CCC/C=C/C=C\C(=O)O[C@@H]1[C@@H](C)[C@]2(O)[C@@H]3C=C(C)C(=O)[C@H]3CC(COC(C)=O)=C[C@H]2[C@@H]2C(C)(C)[C@]12OC(C)=O |  | 74.2 µM |
| O=C1/C(=C/c2cccc([N+](=O)[O-])c2)Cc2ccccc21 |  | > 100 µM |
| Nc1nc(N)c2c(-c3ccccc3)ccnc2n1 |  | > 100 µM |
| CN(CCCCCCCCNc1ccnc2ccccc12)Cc1ccc(-c2ccc(-c3ccc(C#N)cc3)s2)cc1 | 1.47 µM | 2.83 µM |
| CCOC(=O)Nc1cc2c(c(N)n1)N=C(c1ccccc1)CN2 |  | 31.8 µM |
| Cc1ccc2c(c1)C(=O)/C(=C/c1cccc(OCC(=O)c3ccc(Cl)cc3)c1)CS2 | 60.5 µM | > 100 µM |
| O=[N+]([O-])c1cc(C(F)(F)F)cc2n[se]nc12 |  | 29.4 µM |
| COC(=O)CCc1cc(OC)c2oc(-c3ccc(OC)c(OC)c3)c(CO)c2c1 |  | > 100 µM |
| COC1/C=C/OC2(C)Oc3c(C)c(O)c4c(O)c(c(/C=N/N(c5ccccc5)c5ccccc5)c(O)c4c3C2=O)NC(=O)C(C)=C/C=C/C(C)C(O)C(C)C(O)C(C)C(OC(C)=O)C1C (stereo not given) | 5.12 µM | 12.1 µM |
| C[C@H]1[C@H](C)CC[C@]2(C(=O)O)CCC3(COC(=O)/C=C/c4ccc(O)cc4)C(=CCC4[C@@]5(C)CC[C@H](O)C(C)(C)C5CC[C@]43C)[C@H]12 (stereo not given in full) |  | 13.3 µM |
| CN(C)C1(N(C)C)Oc2c(c(=O)n(C)c(=O)n2C)C(c2ccc(F)cc2)C1(F)F (stereo not given) |  | > 100 µM |
| CCOC(=O)c1cc(C2CCN(Cc3ccccc3)C2=O)c(C(=O)/C=C(/C)N)[nH]1 (stereo not given) |  | > 100 µM |
| CC1(C)C2=CCCC(=O)[C@@]2(C)CC[C@@H]1O |  | > 100 µM |
| CCCc1nn(C)c(CCC(=O)N(Cc2ccccc2)Cc2ccccc2)c1CC |  | > 100 µM |
| CC(C)OP(=O)(OC(C)C)/C(=N/Nc1ccc([N+](=O)[O-])cc1)NNC(=O)c1ccccc1 |  | > 100 µM |
| CC(=O)c1ccc(Nc2nc3ccccc3c3occc23)cc1 |  | 99.8 µM |
| O=C1NC(NNc2ccccc2)=N/C1=C\c1ccco1 |  | > 100 µM |
| Cc1ccc(-c2nc3ccccc3c(=O)n2NC2OC(CO)C(O)C(O)C2O)cc1 (stereo not given) |  | > 100 µM |
